# Several values for one entry are separate records, joined by “and”; a condition that tells them apart may be missing. Equal values may be shown once. Screen size: about 110,000 compounds; about 230 (0.21%) showed an effect of 50% or more. The list shows a part of the results.
# Target: DPAP1 (Plasmodium falciparum, UniProt Q8IIJ9)
# Test: primary screen, percent inhibition; read by cleavage of a fluorogenic dipeptide substrate; higher = more effect of the substance
# Set-up: species or system P. falciparum D10 trophozoite lysates; single well
# 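Also: 30 min substrate incubation versus DMSO and 10 µM JCP410 controls.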
# Sequence of DPAP1 (Q8IIJ9 whole entry, looked up): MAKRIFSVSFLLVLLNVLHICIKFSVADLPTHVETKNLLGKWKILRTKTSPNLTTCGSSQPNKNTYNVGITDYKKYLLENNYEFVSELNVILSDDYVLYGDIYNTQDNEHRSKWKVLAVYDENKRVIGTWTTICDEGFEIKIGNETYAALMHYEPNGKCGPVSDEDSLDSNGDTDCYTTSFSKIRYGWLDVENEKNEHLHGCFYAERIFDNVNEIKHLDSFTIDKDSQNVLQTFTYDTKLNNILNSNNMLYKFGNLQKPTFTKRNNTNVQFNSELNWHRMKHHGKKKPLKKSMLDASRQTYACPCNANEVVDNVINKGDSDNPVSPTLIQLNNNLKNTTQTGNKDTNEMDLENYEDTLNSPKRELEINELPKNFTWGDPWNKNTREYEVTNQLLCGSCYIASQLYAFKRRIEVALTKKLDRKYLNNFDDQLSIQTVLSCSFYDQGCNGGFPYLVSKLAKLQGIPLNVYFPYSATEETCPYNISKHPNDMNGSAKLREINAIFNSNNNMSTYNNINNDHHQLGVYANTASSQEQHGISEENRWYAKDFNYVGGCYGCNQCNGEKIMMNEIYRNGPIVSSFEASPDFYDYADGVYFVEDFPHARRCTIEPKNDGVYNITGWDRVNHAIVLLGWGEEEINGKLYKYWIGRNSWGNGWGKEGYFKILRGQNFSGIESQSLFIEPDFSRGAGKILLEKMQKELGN
row,Structure (SMILES),% Inhibition @ 10 uM
1,Brc1ccc(CN2CCN(Cc3cccnc3)CC2)cc1,-1.65%
2,c1ccc(CN2CCC(N3CCSCC3)CC2)cc1,1.88%
3,COc1cc(C2C(C(=O)c3cc4ccccc4o3)=C(O)C(=O)N2CCCN(C)C)cc(OC)c1OC (centres unmarked),-1.33%
4,O=C(OCc1ccccc1Cl)c1ccc(-n2cccn2)cc1,1.76%
5,O=C1CC(/C=C/c2ccccc2)=Nc2ccccc2N1,-2.42%
6,CC1(C)CC(=O)c2c(-c3ccc(Cl)cc3Cl)n[nH]c2C1,-3.46%
7,CC(=O)c1cc2ccc(O)cc2oc1=O,0.035%
8,CCOC(=O)N1CCN(C(=O)CSc2nnc(CNC(=O)c3ccccc3F)o2)CC1,-1.58%
9,COc1ccc(Br)cc1C1CC(=O)Nc2c1ccc1ccccc21 (centres unmarked),-0.173%
10,CCc1ccccc1N(CC(=O)NC1CCCC1)S(=O)(=O)c1ccc(C)cc1,-0.796%
11,O=C(Nc1ccc(N2CCCC2)c(Cl)c1)c1ccc(Br)o1,-0.473%
12,O=C(Nc1ccc(S(=O)(=O)NCCc2ccccc2)cc1)C1CCCO1 (centres unmarked),-5.35%
13,CC(=O)n1cc(C2C(=O)NN=C2C)c2ccccc21 (centres unmarked),2.6%
14,Cc1nc(SCC(=O)c2ccccc2)c(C#N)c(C)c1C,-0.712%
15,Cc1ccc(C)c(N2C(=O)CC(N3CCC(C(N)=O)CC3)C2=O)c1 (centres unmarked),-0.545%
16,C#CCNCc1ccco1,1.67%
17,CCOC(=O)c1cc(-c2ccccc2)n(CCC(=O)NC(C)c2ccccc2)c1C (centres unmarked),12.7%
18,CCN(CC)CC(=O)Nc1sc2c(c1C(N)=O)CCCC2,-1.54%
19,Cc1nnc2c(NCc3ccc(F)cc3)nc3ccccc3n12,5.84%
20,CNC(=O)c1c(NC(=O)Cc2coc3c(C)c(C)ccc23)sc2c1CCCC2,-4.19%
21,COc1ccccc1OCC(=O)Nc1ccc(Cl)cc1,-1.17%
22,COc1cc(SC)ccc1C(=O)Nc1cccc(Br)c1,0.777%
23,COc1ccc2nc(SCC3=CC(C)(C)N(C(C)=O)c4ccccc43)nc(C)c2c1,-0.994%
24,NC(=O)c1ccccc1NS(=O)(=O)c1ccc(F)cc1,1.59%
25,CCN1C(c2ccccc2)C(C)C(=O)C(C)C1c1ccccc1 (centres unmarked),3.94%
26,CCc1cccc(C)c1NC(=O)CSc1nc2c(c(=O)n(C)c(=O)n2C)n1C,4.01%

row,Structure (SMILES),% Inhibition @ 10 uM
1,Cc1cc(C)cc(NC(=O)C(C)Sc2ccccc2)c1 (centres unmarked),-2.88%
2,CCNC(=O)CN(Cc1ccccc1)S(=O)(=O)c1ccc(Cl)cc1,-9.18%
3,CCOC(=O)c1cccc(Cn2nnc3sc4c(c3c2=O)CCC(C)C4)c1 (centres unmarked),-0.946%
4,CCOC(=O)c1c(S(=O)(=O)NCCc2nc3ccccc3[nH]2)c(C)n(C)c1C,-5.5%
5,CCC1CCCCN1CCCNC(=O)CN1C(=O)C(c2ccccc2)Oc2cccnc21 (centres unmarked),-2.39%
6,CC1CC(OCC(O)CN2CCN(c3ccccc3F)CC2)CC(C)(C)C1 (centres unmarked),17.4%
7,O=C(NCCn1ccc2ccccc21)c1cc2ccccc2oc1=O,1.97%
8,CC(C)=C1C2CCC1C1C(=O)N(c3nccs3)C(=O)C21 (centres unmarked),-6.62%
9,CN1C(C(=O)c2ccccc2)=C(N2CCCCC2)c2ccccc2S1(=O)=O,-2.34%
10,C=CCOc1ccc(C2C(C#N)=C(N)OC3=C2C(=O)c2ccccc2C3=O)cc1 (centres unmarked),7.99%
11,CCC1CCc2c(sc(NC(=O)CC(C)C)c2C#N)C1 (centres unmarked),5.66%
12,Cc1cc(C)n2nc(CC(=O)NC3CCCC(C)C3C)nc2n1 (centres unmarked),4.47%
13,CC(C)(C)c1ccc(-c2cc(N)n(S(=O)(=O)c3ccc(F)cc3)n2)cc1,-11%
14,N=C1/C(=C/c2cccn2Cc2ccccc2)C(=O)N=C2SC=C(c3ccccc3)N12,-3.28%
15,COc1ccc(-c2csc(/C(C#N)=C\c3cccs3)n2)cc1,3.72%
16,CCSc1nc(-c2ccccc2Cl)nc2c1Cc1c(CO)cnc(C)c1O2,5.09%
17,CCNC(=O)/C(=C\c1ccc2c(c1)OCO2)NC(=O)c1ccc(Br)cc1,-2.64%
18,CCn1c(SC)nc2sc3c(c2c1=O)CC(C)(C)OC3,-4.67%
19,COc1ccc(C(=O)N2CCN(c3ccc(C)cc3)CC2)cc1OC,-1.52%
20,CCN1CCCC1CNCc1ccc(OCc2ccc(Cl)nc2)c(OC)c1 (centres unmarked),-0.0678%
21,c1ccc(C2CCC(N3CCOCC3)CC2)cc1 (centres unmarked),1.57%
22,COc1ccc2nc3c(nc2c1)C(=O)c1ccccc1-3,-4.61%
23,CCO/C(O)=C1\C(C)=NC(=S)NC1c1ccc(OCC(=O)N2CCOCC2)c(OC)c1 (centres unmarked),-5.36%
24,CCSC1=C(C#N)C(c2cccc3ccccc23)CC(=O)N1 (centres unmarked),4.15%
25,COc1ccc(-c2ccc(CCC(=O)O)n2NC(=O)c2ccccc2OC)cc1,-0.169%
26,CC1=C(C(=O)NCCCN2CCCC2=O)C2(CCCCC2)OC1=O,-7.53%

row,Structure (SMILES),% Inhibition @ 10 uM
1,O=C(NCCOCc1ccccc1)c1ccccc1Cl,2.18%
2,CCN(CC)C(=S)NC(=O)c1cccnc1,-3.48%
3,CCc1cc(=O)oc2c3c(c(Cl)cc12)OCN(Cc1ccco1)C3,-2.57%
4,CCNc1nc(NCC)n2c(SCC(=O)c3cccs3)nnc2n1,0.9%
5,CCO/C(O)=C1\C(C)=NC(=S)NC1c1cc(C(C)C)c(OC)cc1C (centres unmarked),-0.142%
6,Cc1nn(C)cc1C(=O)Nc1c(C)nn(Cc2ccccc2Cl)c1C,2.09%
7,C=C1c2cc(C)c(C)cc2NC(=O)N1c1cccc(Cl)c1,1.92%
8,CSc1ccc(C2C(C#N)=C(N)Oc3[nH]c(C)nc32)cc1 (centres unmarked),1.02%
9,CCn1cc(C2NC(=O)c3sc4nc(C(F)(F)F)cc(C)c4c3N2)c(C)n1 (centres unmarked),-5.06%
10,Cc1cccc(OCC(=O)Nc2ncccn2)c1,-1.04%
11,CC1=C(n2nnc3ccccc32)C(c2ccccc2)C(C#N)=C(N)O1 (centres unmarked),3.32%
12,CCC(=O)N1C(C(=O)NCc2ccc(OC)cc2)CSC12CCN(C)CC2 (centres unmarked),-0.868%
13,Cc1ccc(NC=C2C(=O)CC(c3ccccc3)CC2=O)cc1C (centres unmarked),-1.38%
14,O=S(=O)(NCc1ccccn1)c1ccc(Oc2ccccc2)cc1,-5.57%
15,COc1ccccc1OCC(=O)Nc1ccc(C)cc1,3.91%
16,Cc1ccc(-c2csc(NC(=O)C3CC3)n2)cc1,-6.27%
17,CC(=O)Nc1ccc(S(=O)(=O)NCc2cn(-c3ccccc3)nc2-c2ccccc2)cc1,0.907% and -1.37%
18,Cc1cc(C)nc(NS(=O)(=O)c2ccc(NC(=S)NC(=O)c3ccccc3)cc2)n1,-0.129%
19,CC(=O)n1c(C#N)c(O)c2ccccc21,-1.42%
20,Cc1ccc(S(=O)(=O)NCc2ccc(C(=O)NCCCSC3CCCCC3)cc2)cc1,0.718%
21,O=C1CNC(=O)/C1=C\c1ccc(Br)cc1,-3.06%
22,CCC(COc1nnnc2ccccc12)NC(=O)c1nccc2ccccc12 (centres unmarked),-1.07%
23,CC(C)Oc1ccc(NC(=O)C23CC4CC(CC(C4)C2)C3)cc1,0.00178%
24,Cc1nn(C(=O)CCCC(=O)NCCCN2C(C)CCCC2C)c2ccccc12 (centres unmarked),3.87%
25,N#CCNC(=O)C(Cc1ccc(Cl)cc1)NC(=O)OCc1ccccc1 (centres unmarked),-10.7%
26,O=C1CC(N2CCN(Cc3ccccc3)CC2)C(=O)N1c1ccc2c(c1)OCCO2 (centres unmarked),5.15%

row,Structure (SMILES),% Inhibition @ 10 uM
1,COCC(=O)Nc1cccc2ccccc12,-0.425%
2,N#C/C(=C/c1ccc(F)cc1)c1nc(-c2ccc(F)cc2)cs1,7.33%
3,O=C1C(=O)N(C(=O)Nc2cccc3ccccc23)c2ccccc21,1.29%
4,N#CC1=C(SCc2ccccc2)NC(=O)CC1c1ccc(F)cc1 (centres unmarked),0.673%
5,Cc1ccccc1-c1noc(-c2ccc([N+](=O)[O-])cc2)n1,-4.11%
6,CCN1CCC(N(CC)Cc2ccccc2)CC1,-0.0953%
7,Cc1c(Cl)cccc1NC(=O)CCc1ccccc1,3.74%
8,O=c1c2c(nc(SCCc3ccccc3)n1-c1ccccc1)-c1ccccc1CC21CCCCC1,-2.2%
9,COc1cc(S(=O)(=O)n2c(C)nc3ccccc32)ccc1Br,-7.17%
10,COP(=O)(OC)C1(Nc2ccc(C)cc2)CCCCC1,3.42%
11,OCC1CCCCN1Cc1ccc(Br)o1 (centres unmarked),2.65%
12,O=C1CC(N2CCC(c3ccncc3)CC2)C(=O)N1Cc1ccccc1 (centres unmarked),-5.72%
13,CCN(CC)S(=O)(=O)c1cc(-c2nnc(O)c3ccccc23)ccc1C,-1.6%
14,Cc1ccc(C(=O)Nc2cccc(O)c2)cc1,2.17%
15,COc1ccc(C2C(C(=O)OCc3ccccc3)=C(C)N=C3SCCC(=O)N32)cc1OC (centres unmarked),-1.17%
16,CC(C)OCCCNC(=O)c1nnc(Cc2cccc(Cl)c2)o1,4.95%
17,O=C(NCCc1ccccc1)Nc1ccc(Cl)c(Cl)c1,-0.414%
18,Cc1cc(Cl)ccc1OCC(=O)N(Cc1cccs1)C1CCS(=O)(=O)C1 (centres unmarked),2.1%
19,O=C(O)c1c(-n2cnnn2)sc2c1CCCC2,-4.67%
20,COc1cc(C(=O)c2cc(Cl)ccc2N)cc(OC)c1OC,-3.38%
21,COc1cc(C)c(C(C)C)cc1S(=O)(=O)NCCN1CCOCC1,-7.47%
22,COc1cccc(CNC(=O)c2sc3ccccc3c2Cl)c1,-2.07%
23,COc1ccc(-c2cc(-c3ccccc3)nc(-n3nc(-c4ccccc4)cc3O)n2)cc1OC,1.87%
24,CC(C)CCN(C)C1CCN(S(=O)(=O)c2ccc(C(C)(C)C)cc2)CC1,2.05%
25,CN(CC(=O)N1CCc2ccccc2C1)S(=O)(=O)c1c[nH]cn1,3.24%
26,O=[N+]([O-])c1ccc(N2CCOCC2)cc1OCCOc1ccccc1,-6.78%

# — article PMC6919601, “Identification of Plasmodium dipeptidyl aminopeptidase allosteric inhibitors by high throughput screening” (PLoS ONE, 2019)
